Results from PubChem BioAssay AID624296 (National Center for Advancing Translational Sciences (NCATS), 2012).
Out of some 350,000 compounds screened, about 9,900 (2.8%) were called active. The inconclusive results got no clear call from the source; some entries with a clear call stand among them for comparison. The call rests on the fitted dose curve; in most records, active means well fitted activation curve with a large enough effect; inconclusive means small, poorly fitted or top-dose-only effect; inactive means no such curve, though single readings can be large or run the other way. Potencies of inconclusive entries are left out as doubtful fits.

assay: A quantitative high throughput screen for small molecules that induce DNA re-replication in MCF 10a normal breast cells.; further: nearly all actives have a fitted effect of over 50% in size; on activity, positive = re-replication: % of control where 0% means no effect; conditions: MCF 10A DNA re-replication, Hoechst nuclear intensity, 48 h; activity, positive = re-replication: at 46.1 µM (top of the series)
Potency means the concentration at half of the fitted maximal effect; tags describe the fitted curve by direction and shape.

Row | Structure (SMILES) | Potency | activity, positive = re-replication
1 | Cc1nn(-c2cccc(Cl)c2)c(Cl)c1/C=N/NC(=O)c1cccs1 | inconclusive [activator, partial curve, poor fit] | –
2 | COc1ccc(-c2noc(N3CCC(C(=O)Nc4ccc(OC)cc4OC)CC3)n2)cc1 | – | inactive: 6.11%
3 | Cc1c(Cl)cccc1N1C(=O)CC(NNC(=O)c2cccnc2)C1=O (stereo not given) | inconclusive [activator, single point] | –
4 | Oc1c(Cl)cc(Cl)cc1/C=N/c1nc(-c2ccc(Cl)cc2)cs1 | inconclusive [activator, single point] | –
5 | CC(C)n1ncc2c(C(=O)NCCc3ccc(F)cc3)cc(C3CC3)nc21 | inconclusive [activator, single point] | –
6 | OC(c1cc(-c2ccc(C(F)(F)F)cc2)nc(C(F)(F)F)c1)C1CCCCN1 (stereo not given) | active: 23.1 µM | –
7 | CCCc1ccc(C(=O)NNc2cccc(C)c2)cc1 | inconclusive [activator, single point] | –
8 | CC(NC(=O)c1cccnc1)C(c1cccs1)N1CCN(c2ccccc2F)CC1 (stereo not given) | – | inactive: -2.34%
9 | CCOc1cccc(/C=N/NC(=S)Nc2cc(S(=O)(=O)N3CCOCC3)ccc2N2CCOCC2)c1O | inconclusive [activator, partial curve, poor fit] | –
10 | COC(=O)c1ccccc1-n1cccc1C(=O)NP(=O)(N1CCOCC1)N1CCOCC1 | – | inactive: -7.92%
11 | CC(C)(C)c1cnnn1-c1ccc(C=O)cc1 | – | inactive: 0.0559%
12 | COc1ccc(/C=C/C(=O)O)cc1S(=O)(=O)N1CCc2ccccc2C1 | inconclusive [activator, single point] | –
13 | Cc1oc(-c2ccccc2F)nc1CSCC(=O)NC1CC1 | – | inactive: -3.62%
14 | NC(=O)c1ccc2c(=O)c(O)c(-c3cc(Cl)c(N)c(Cl)c3)[nH]c2c1 | – | inactive: 0.881%
15 | Cc1cccc(-c2ncc(CN3CCCC(CO)(Cc4cccc(Cl)c4)C3)cn2)c1 (stereo not given) | inconclusive [activator, partial curve, poor fit] | –
16 | CC(=O)Nc1ccc(C(=O)CSc2nnc(-c3ccc(O)cc3)n2CC2CCCO2)cc1 (stereo not given) | inconclusive [activator, single point] | –
17 | CC(C)(C)Nc1nc(SCc2ccccc2)nc(N2CCOCC2)n1 | inconclusive [activator, single point] | –
18 | COc1cc(-c2cc(=O)c3c(O)c(OC)c(OC)cc3o2)cc(OC)c1O | – | inactive: -2.24%
19 | CCc1nnc(NC(=O)CSc2ncc(-c3ccccc3)n2CC)s1 | inconclusive [activator, single point] | –
20 | O=C(c1ccc(S(=O)(=O)Nc2ccc(F)cc2)cc1)N1CCN(C(=O)c2ccco2)CC1 | inconclusive [activator, partial curve, poor fit] | –
21 | Cc1nn(-c2cc(N3CCCCCC3)ccc2[N+](=O)[O-])c(=O)c2ccccc12 | – | inactive: 11.7%
22 | CC(C)C[C@H]1CNC(=S)N1CC1CCN(CCCC2CCCCC2)CC1 | inconclusive [activator, full curve, poor fit] | –

Row | Structure (SMILES) | Potency | activity, positive = re-replication
23 | COc1ccc(O)c(/C=N/NC(=O)CSc2nnc(C)n2-c2ccccc2)c1 | inconclusive [activator, single point] | –
24 | Cc1ccc(C(=O)N2C(=O)C(c3ccccc3)Oc3ccccc32)cc1 (stereo not given) | inconclusive [activator, single point] | –
25 | Cc1cc2[nH]c3ccccc3c2c(C)n1 | inconclusive [activator, single point] | –
26 | CC(C)c1ccc(OCC(=O)N2CCc3ccccc3C2)cc1 | inconclusive [activator, partial curve, poor fit] | –
27 | CCOC(=O)c1c(NC(=O)CSc2nc3cc(Cl)ccc3c(=O)n2Cc2ccco2)sc(C(=O)N(C)C)c1C | inconclusive [activator, partial curve, poor fit] | –
28 | S=C(c1cn(Cc2ccc(Br)cc2)c2ccccc12)N1CCOCC1 | inconclusive [activator, partial curve] | –
29 | CCOc1ccc(-c2cn(-c3cccc(SC)c3)c(=O)[nH]2)cc1 | inconclusive [activator, partial curve, poor fit] | –
30 | COc1cc(-c2onc3ccc(Br)cc23)cc(OC)c1OC | inconclusive [activator, partial curve, poor fit] | –
31 | O=C(Cc1ccccc1)c1nnc(-c2ccccc2)o1 | – | inactive: -1.01% [at 9.22 µM]
32 | CCN1CCN(S(=O)(=O)c2ccc(S(=O)(=O)NCC3CCCO3)cc2)CC1 (stereo not given) | inconclusive [activator, single point] | –
33 | CCOC(=O)c1c(C)[nH]c(C(=O)OCC(=O)N(C)CC(=O)Nc2ccccc2Cl)c1C | – | inactive: 8.47%
34 | COc1ccc(-n2c(SCC(=O)Nc3cccc4ccccc34)nc(O)cc2=O)cc1 | inconclusive [activator, full curve, poor fit] | –
35 | C/C(=N/NS(=O)(=O)c1cc(C)ccc1C)c1c[nH]c2ccccc12 | inconclusive [activator, single point] | –
36 | Cc1cccc(Oc2ccccc2NS(=O)(=O)c2ccc(CCC(=O)O)cc2)c1 | inconclusive [activator, single point] | –
37 | CCCCC1(Cc2ccc([N+](=O)[O-])cc2)C(=O)N(c2ccccc2)N(c2ccccc2)C1=O | inconclusive [activator, partial curve] | –
38 | CC(=O)c1ccc(N2CCN(C(=O)/C=C/c3ccc4ccccc4n3)CC2)cc1 | inconclusive [activator, partial curve, poor fit] | –
39 | COc1ccc(CN(CCCN2CCOCC2)C(=O)Nc2ccccc2)cc1OC | – | inactive: -3.75%
40 | CCc1ccc(Nc2cc(C(=O)NCCCN3CCOCC3)c3ccccc3n2)cc1 | inconclusive [activator, single point] | –
41 | Cc1cccc(-n2nnnc2SCC(=O)N(CC(C)C)c2c(N)n(CC(C)C)c(=O)[nH]c2=O)c1 | – | inactive: -3.8%
42 | CN(/N=C/c1ccccc1Cl)c1ncc(Cl)cc1C(F)(F)F | inconclusive [activator, partial curve, poor fit] | –
43 | Cc1ccccc1OCC(=O)N/N=C/c1cn(Cc2ccccc2)c2ccccc12 | inconclusive [activator, single point] | –
44 | COC(=O)Nc1ccc(S(=O)(=O)NC2CCS(=O)(=O)C2)cc1 (stereo not given) | inconclusive [activator, full curve, poor fit] | –

Row | Structure (SMILES) | Potency | activity, positive = re-replication
45 | Cc1ccc(OCCCC(=O)N2CCN(S(=O)(=O)c3cccc(F)c3)CC2)cc1 | inconclusive [activator, full curve, poor fit] | –
46 | O=C(CNc1cccc(S(=O)(=O)N2CCOCC2)c1)N1CCc2ccccc21 | – | inactive: 7.18%
47 | O=C(O)c1cnn(-c2nc(-c3ccc(Cl)cc3)cs2)c1C(F)(F)F | – | inactive: 9.41%
48 | CCOC(=O)/C=c1\s/c(=C\c2ccc3cc(OC)ccc3c2)c(=O)n1CC(=O)NCC1CCCO1 (stereo not given) | active: 11.6 µM | –
49 | O=C(Nc1ccccc1N1CCN(C(=O)c2ccc(Cl)cc2)CC1)c1ccc([N+](=O)[O-])o1 | inconclusive [activator, single point] | –
50 | CCc1ccc(NC(=O)CCc2nc3cccnc3n2Cc2ccc(OC)cc2)cc1 | inconclusive [activator, single point] | –
51 | COCCn1c(C)cc(C(=O)COC(=O)CCS(=O)(=O)c2ccc(C)cc2)c1C | inconclusive [activator, single point] | –
52 | Cc1c(N2CCCC2)cc2c(c1N)C(C)(C)CC2(C)C | inconclusive [activator, partial curve, poor fit] | –
53 | CCC(=O)c1ccc(OCC(=O)OCC(=O)NCCC2=CCCCC2)cc1 | – | inactive: 17.6%
54 | COc1ccc(CNC(=O)CCS(=O)(=O)c2ccc3c(c2)CC(C)N3C(=O)C2CC2)cc1 (stereo not given) | inconclusive [activator, single point] | –
55 | COc1ccc(N2CCN(C(=O)c3ccc(N(C)S(=O)(=O)c4ccc(C)cc4)cc3)CC2)cc1 | inconclusive [activator, partial curve] | –
56 | COc1ccccc1/C=C/C1C(C(=O)OCC(C)C)=C(C)N=C2SCCC(=O)N21 (stereo not given) | inconclusive [activator, partial curve, poor fit] | –
57 | COc1cc(NC(=O)c2sc3nc(C)nc(N4CCOCC4)c3c2C)cc(OC)c1OC | – | inactive: 1.9%
58 | S=c1[nH]nc(-c2ccco2)n1-c1ccc(Cl)cc1 | – | inactive: -2.48%
59 | COc1cccc2cc(/C(=N/O)c3ccccc3)oc12 | inconclusive [activator, partial curve, poor fit] | –
60 | O=C(COn1nnc2ccc(C(F)(F)F)cc21)Nc1nnc(-c2ccccc2)o1 | inconclusive [activator, single point] | –
61 | COc1ccc(-c2nnc(SCc3nnc(-c4ccc(Cl)cc4)o3)n2-c2ccccc2)cc1 | inconclusive [activator, partial curve] | –
62 | CC(CCc1ccc(O)cc1)NC(c1ccccc1)c1ccc(Cl)cc1 (stereo not given) | active: 16.4 µM | –
63 | CCc1ccc(NC(=S)NNC(=O)c2ccccc2OC(F)F)cc1 | inconclusive [activator, single point] | –
64 | Oc1ccc(-c2cccc(-c3ccc(O)cc3)n2)cc1 | inconclusive [activator, single point] | –
65 | O=C(Nc1ccccc1)C(Cl)C(=O)c1ccccc1 (stereo not given) | inconclusive [activator, single point] | –
